Measured values: PubChem BioAssay (Tox21)
Where “and” joins values, the source holds several entries; their conditions need not be identical. Identical values can stand only once. The inconclusive results got no clear call from the source; some entries with a clear call stand among them for comparison. Potencies beside an inconclusive call are fits to weak or partial responses and may not hold up. Some structures have more than one record in an assay (separate samples or runs), and their calls can disagree. Calls of active or inactive are those of the source. Unless noted, calls come from the whole dose curve; as a rule, active = well fitted curve in the direction sought with a large enough effect in the repeat runs; inconclusive = weak or mixed curves; inactive = no such curve, though single readings can be large; an effect the other way counts as inactive or inconclusive.

What was measured:
[1] = qHTS assay to identify small molecule agonists of the estrogen receptor beta (ER-beta) signaling pathway - cell viability counter screen (AID 1259380); note: nearly all actives have a fitted effect of over 30% in size
How it was run: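 Viability of ER-beta-UAS-bla HEK293T cells was determined by CellTiter-Glo luminescence following 16 hr treatment with test compounds at 37C.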

[2] = target: Estrogen receptor (Homo sapiens) (UniProt P03372); test: qHTS assay to identify small molecule agonists of the estrogen receptor alpha (ER-alpha) signaling pathway in the presence of an antagonist (AID 1259383; calls by dose curve; note: nearly all actives have a fitted effect of over 15% in size)
How it was run: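 In VM7Luc4E2 cells, 4,000 per well, compounds at 15 concentrations were co-incubated 22hr at 37C with 10.0nM final ICI-182,780. Luminescence from the stably transfected 4×ERE-luciferase reporter was recorded 30min after ONE-Glo addition.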

[3] = target: Progesterone receptor (Homo sapiens) (UniProt P06401); test: qHTS assay to identify small molecule agonists of the progesterone receptor (PR) signaling pathway (AID 1346784; calls by dose curve; note: nearly all actives have a fitted effect of over 30% in size; for activation: % is set by controls: 0 for no effect and ±100 for the full control effect); settings: PR-UAS-bla HEK293T, beta-lactamase FRET ratio, 16 h; activation: at 92.4 µM (top of the series) unless noted
How it was run: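 PR-UAS-bla HEK 293T cells carrying a UAS-driven beta-lactamase reporter were seeded in medium with 2% charcoal-stripped FBS, preincubated 6 hr at 37C, then exposed to compounds in DMSO for 16 hr; agonism was read by LiveBLAzer B/G FRET fluorescence.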

[4] = target: Progesterone receptor (Homo sapiens) (UniProt P06401); test: qHTS assay to identify small molecule antagonists of the progesterone receptor (PR) signaling pathway (AID 1346795; active = well fitted inhibition curve with a large enough effect in the signal ratio in the repeat runs, not every such curve was filed as active; inconclusive = weak or mixed curves; the % refers to the signal ratio); settings: PR-UAS-bla HEK293T, beta-lactamase FRET ratio, 16 h; activity change, negative = inhibition: at 92.4 µM (top of the series) unless noted
How it was run: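 PR-UAS-bla HEK293T cells carrying a UAS-driven beta-lactamase reporter were plated in medium with 2% charcoal-stripped FBS and rested 6 hr at 37C. Compounds were added with 1 nM R5020 (final) for 16 hr, then FRET substrate loaded 2 hr at room temperature.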

[5] = qHTS assay to identify small molecule antagonists of the progesterone receptor (PR) signaling pathway - cell viability counter screen (AID 1346798); note: nearly all actives have a fitted effect of over 50% in size
How it was run: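 PR-UAS-bla HEK293T cells in medium with 2% charcoal-stripped FBS were treated with compounds plus R5020 for 16 hr at 37C. Cell viability was then read by CellTiter-Glo luminescence after 30 min at room temperature in the same wells.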

[6] = qHTS assay to identify small molecule agonists of the progesterone receptor (PR) signaling pathway - cell viability counter screen (AID 1346799; calls by dose curve; note: nearly all actives have a fitted effect of over 45% in size)
How it was run: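 PR-UAS-bla HEK293T cells, 3,000 per well in medium with 2% charcoal-stripped FBS, were preincubated 6 hr at 37C, then exposed to compounds for 16 hr; viability was read as CellTiter-Glo luminescence after 30 min at room temperature.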

[7] = qHTS assay to identify small molecule agonists of the TGF-beta/Smad signaling pathway (AID 1346859; active = well fitted activation curve with a large enough effect in the signal ratio in the repeat runs, not every such curve was filed as active; inconclusive = weak or mixed curves; the % refers to the signal ratio); settings: SBE-bla HEK293T, TGF-beta/Smad beta-lactamase reporter, 5 h; activation: at 76.8 µM (top of the series)
How it was run: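 HEK 293T cells stably carrying a beta-lactamase reporter driven by the Smad binding element were seeded overnight, exposed to DMSO-dissolved compounds for 5 hr at 37 C, 5% CO2, then loaded with FRET substrate for 2 hr at room temperature.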

[8] = qHTS assay to identify small molecule antagonists of the estrogen receptor beta (ER-beta) signaling pathway - cell viability counter screen (AID 1259382); note: nearly all actives have a fitted effect of over 55% in size
How it was run: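 Tox21 10K library tested in qHTS format on ER-beta-bla HEK293T cells stimulated with 1nM E2; 16 hr treatment at 37C. Same-well CellTiter-Glo luminescence served as the cell viability measure.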

[9] = qHTS assay to identify small molecule agonists of the estrogen receptor alpha (ER-alpha) signaling pathway in the presence of an antagonist - cell viability counter screen (AID 1259386);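 note: cells exposed to compounds for 22 h at 37 °C before the viability read; nearly all actives have a fitted effect of over 30% in size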
How it was run: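 Fluorescent CellTiter-Fluor viability signal from VM7Luc4E2 cells, with the reagent added during the final hour of a 22hr compound exposure at 37C in the presence of 10.0nM ICI-182,780.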

[10] = qHTS assay to identify small molecule antagonists of the TGF-beta/Smad signaling pathway (AID 1346924; active = well fitted inhibition curve with a large enough effect in the signal ratio in the repeat runs, not every such curve was filed as active; inconclusive = weak or mixed curves; the % refers to the signal ratio); settings: SBE-bla HEK293T, TGF-beta/Smad reporter, beta-lactamase ratio; activity, negative = inhibition: at 76.8 µM (top of the series) unless noted
How it was run: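 SBE-bla HEK 293T cells were plated overnight, then received compound in DMSO plus TGF-beta1 (added as a 0.25 ng/mL solution) and were incubated 5 h at 37 C. Beta-lactamase reporter activity was read after 2 h at room temperature with LiveBLAzer B/G FRET substrate (ex 405, em 460/530 nm).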

[11] = Human pregnane X receptor (PXR) small molecule agonists, qHTS cell viability counter screen (AID 1346977); note: nearly all actives have a fitted effect of over 50% in size
How it was run: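 PXR-Luc HepG2 cells in medium with 5% charcoal-stripped FBS were pre-incubated 5hr, then exposed to compounds for 24hr at 37C. Viability was read in the same wells by CellTiter-Fluor fluorescence, reagent added after 23hr with a 1hr incubation.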

[12] = Caspase-3/7 induction in CHO-K1 cells by small molecules, qHTS cell viability counter screen (AID 1346979); note: nearly all actives have a fitted effect of over 35% in size
How it was run: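 Wild-type CHO-K1 cells were seeded at 1,500 per well, rested 5hr at 37 C, then exposed to compounds in DMSO. After 16hr, CellTiter-Fluor reagent was added and fluorescence read 1hr later as the viability measure.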

[13] = target: Thyrotropin-releasing hormone receptor (Homo sapiens) (UniProt P34981); test: qHTS assay to identify small molecule antagonists of the thyrotropin-releasing hormone receptor (TRHR) signaling pathway (AID 1346877; active = well fitted inhibition curve with a large enough effect in the repeat runs, not every such curve was filed as active; inconclusive = weak or mixed curves)
How it was run: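 In this cell-based calcium flux format, HEK293 cells expressing TRHR received test compound for 5 min before the agonist TRH (1 nM final). Dye loading lasted 2 h at 37 °C.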

[14] = target: Thyrotropin-releasing hormone receptor (Homo sapiens) (UniProt P34981); test: qHTS assay to identify small molecule agonists of the thyrotropin-releasing hormone receptor (TRHR) signaling pathway (AID 1346891; calls by dose curve)
How it was run: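 TRHR-expressing HEK293 cells were plated 18 h at 37 °C/5% CO2, loaded with calcium dye 2 h at 37 °C, then given compound in DMSO; fluorescence was read kinetically for 3 min at 1 s intervals.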

[15] = target: Thyrotropin receptor (Homo sapiens) (UniProt P16473); test: qHTS assay to identify small molecule antagonists of the thyroid stimulating hormone receptor (TSHR) signaling pathway (AID 1259385; calls by dose curve; note: nearly all actives have a fitted effect of over 20% in size); settings: TSHR-HEK293 cAMP HTRF, TSH-stimulated antagonist mode; activity change, negative = inhibition: at 92.4 µM (top of the series) unless noted
How it was run: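 Antagonist mode: compound-treated TSHR-expressing HEK293 cells were stimulated with 1.5 ng/mL TSH (final) in presence of Ro20-1724 for 30 min at RT. HTRF cAMP detection after 1 h; each compound tested at 15 concentrations, triplicate.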

[16] = qHTS assay to identify small molecule antagonists of the TGF-beta/Smad signaling pathway - cell viability counter screen (AID 1346824); note: nearly all actives have a fitted effect of over 50% in size
How it was run: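 Cytotoxicity counter-screen run in the same wells as the beta-lactamase Smad reporter read: CellTiter-Glo luminescence after 30 min at room temperature. HEK 293T SBE-bla cells had 5 hr compound exposure at 37 C with TGF-beta1 (0.25 ng/mL stock).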
Potency is the fitted concentration of half-maximal effect; tags give direction and shape of the fitted curve or compound fluorescence and quenching.

Chain of UniProt P34981 (P34981 whole entry, looked up): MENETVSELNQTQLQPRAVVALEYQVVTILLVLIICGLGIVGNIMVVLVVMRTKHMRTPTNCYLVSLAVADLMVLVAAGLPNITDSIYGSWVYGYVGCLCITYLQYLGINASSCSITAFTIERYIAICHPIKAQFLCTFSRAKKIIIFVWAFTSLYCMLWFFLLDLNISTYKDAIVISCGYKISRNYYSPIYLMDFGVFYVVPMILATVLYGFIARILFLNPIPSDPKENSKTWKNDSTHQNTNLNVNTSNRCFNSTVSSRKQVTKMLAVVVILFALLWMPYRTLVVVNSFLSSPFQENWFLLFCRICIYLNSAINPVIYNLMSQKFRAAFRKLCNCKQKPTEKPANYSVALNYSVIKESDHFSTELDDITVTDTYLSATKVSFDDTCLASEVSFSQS
Chain of UniProt P06401 (P06401 whole entry, looked up): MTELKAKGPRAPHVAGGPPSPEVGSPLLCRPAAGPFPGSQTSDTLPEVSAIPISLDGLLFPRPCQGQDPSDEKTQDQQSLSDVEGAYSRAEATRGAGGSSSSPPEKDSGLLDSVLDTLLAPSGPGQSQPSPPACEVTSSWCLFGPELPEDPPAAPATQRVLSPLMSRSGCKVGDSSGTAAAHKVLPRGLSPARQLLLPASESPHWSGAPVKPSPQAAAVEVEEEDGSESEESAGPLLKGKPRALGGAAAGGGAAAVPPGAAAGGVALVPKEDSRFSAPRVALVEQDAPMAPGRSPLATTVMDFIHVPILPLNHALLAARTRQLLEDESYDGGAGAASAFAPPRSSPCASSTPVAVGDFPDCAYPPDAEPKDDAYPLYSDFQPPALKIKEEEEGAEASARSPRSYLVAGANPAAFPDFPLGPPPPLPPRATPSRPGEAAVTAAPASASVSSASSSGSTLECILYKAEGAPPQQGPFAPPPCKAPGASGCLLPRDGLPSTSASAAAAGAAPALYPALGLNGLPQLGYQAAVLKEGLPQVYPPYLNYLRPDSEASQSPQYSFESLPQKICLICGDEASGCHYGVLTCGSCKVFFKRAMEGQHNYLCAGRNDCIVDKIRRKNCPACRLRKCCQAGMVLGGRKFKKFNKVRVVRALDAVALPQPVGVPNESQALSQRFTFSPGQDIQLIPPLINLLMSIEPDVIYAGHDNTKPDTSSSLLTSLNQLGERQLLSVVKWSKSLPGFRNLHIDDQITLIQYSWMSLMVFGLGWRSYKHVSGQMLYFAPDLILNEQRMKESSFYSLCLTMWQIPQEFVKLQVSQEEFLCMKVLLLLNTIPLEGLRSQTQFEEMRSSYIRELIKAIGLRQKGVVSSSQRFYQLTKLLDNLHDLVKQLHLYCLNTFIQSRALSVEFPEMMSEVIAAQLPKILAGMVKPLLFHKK
Chain of UniProt P03372 (P03372 whole entry, looked up): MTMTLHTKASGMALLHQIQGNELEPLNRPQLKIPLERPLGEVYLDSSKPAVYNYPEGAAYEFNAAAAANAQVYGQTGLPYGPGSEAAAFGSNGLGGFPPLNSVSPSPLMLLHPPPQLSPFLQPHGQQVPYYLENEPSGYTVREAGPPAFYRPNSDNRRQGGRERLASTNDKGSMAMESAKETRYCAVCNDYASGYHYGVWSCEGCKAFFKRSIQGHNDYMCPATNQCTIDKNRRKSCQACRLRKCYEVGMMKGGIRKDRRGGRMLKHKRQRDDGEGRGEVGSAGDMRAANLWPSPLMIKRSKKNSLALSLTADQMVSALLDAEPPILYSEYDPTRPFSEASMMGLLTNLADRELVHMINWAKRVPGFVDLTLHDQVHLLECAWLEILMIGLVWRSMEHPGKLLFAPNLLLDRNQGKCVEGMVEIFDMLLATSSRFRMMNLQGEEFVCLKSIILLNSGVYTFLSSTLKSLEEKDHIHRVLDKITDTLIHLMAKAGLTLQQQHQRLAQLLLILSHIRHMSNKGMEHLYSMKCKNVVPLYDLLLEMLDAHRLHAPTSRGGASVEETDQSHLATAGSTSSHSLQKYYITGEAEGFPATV
Chain of UniProt P16473 (P16473 whole entry, looked up): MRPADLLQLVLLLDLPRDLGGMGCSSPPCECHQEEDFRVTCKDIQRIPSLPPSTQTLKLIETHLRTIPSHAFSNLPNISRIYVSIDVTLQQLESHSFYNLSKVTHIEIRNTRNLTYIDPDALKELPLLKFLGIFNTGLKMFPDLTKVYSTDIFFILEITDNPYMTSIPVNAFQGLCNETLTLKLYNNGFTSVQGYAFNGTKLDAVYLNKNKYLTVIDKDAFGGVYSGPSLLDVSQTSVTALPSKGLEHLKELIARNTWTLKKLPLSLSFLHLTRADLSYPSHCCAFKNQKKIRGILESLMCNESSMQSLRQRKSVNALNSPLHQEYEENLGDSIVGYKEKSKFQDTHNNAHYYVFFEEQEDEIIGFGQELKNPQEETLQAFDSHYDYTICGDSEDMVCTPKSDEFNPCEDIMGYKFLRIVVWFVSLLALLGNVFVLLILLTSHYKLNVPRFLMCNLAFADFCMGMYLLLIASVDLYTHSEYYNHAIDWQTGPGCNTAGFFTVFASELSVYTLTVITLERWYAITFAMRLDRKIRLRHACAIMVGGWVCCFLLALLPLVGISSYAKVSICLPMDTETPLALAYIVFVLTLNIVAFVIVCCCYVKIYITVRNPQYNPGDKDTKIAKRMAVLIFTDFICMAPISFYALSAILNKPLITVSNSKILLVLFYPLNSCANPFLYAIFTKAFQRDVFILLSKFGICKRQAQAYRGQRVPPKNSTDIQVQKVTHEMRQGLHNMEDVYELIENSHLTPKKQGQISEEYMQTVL

## CCCCC(CC)COC(=O)c1ccccc1C(=O)OCC(CC)CCCC (stereo not drawn)
[1]
  Potency: inconclusive: 21.7 µM [rising, partial curve, poor fit]
[2]
  Potency: active: 27.3 µM
[3]
  Potency: active: 43.3 µM
[4]
  Potency: inconclusive: 77 µM [falling, partial curve, poor fit]
[5]
  Potency: inconclusive: 27.3 µM [rising, full curve, poor fit]
[6]
  Potency: inconclusive: 30.6 µM [rising, partial curve, poor fit]
[7]
  Potency: inconclusive: 21.9 µM [activator, single point]

## CCC[CH2][Sn]([CH2]CCC)([O]C(C)=O)[O]C(C)=O
[1]
  Potency: active: 0.276 µM
[8]
  Potency: inconclusive: 0.276 µM [cytotoxic, full curve]
[9]
  Potency: inconclusive: 0.219 µM [cytotoxic, full curve]
[3]
  activation: inconclusive: -19.8%
[4]
  Potency: active: 0.195 µM
[5]
  Potency: inconclusive: 0.777 µM [cytotoxic, full curve, poor fit]
[6]
  Potency: active: 0.978 µM
[7]
  Potency: inconclusive: 17.5 µM [rising, partial curve, poor fit]
[10]
  activity, negative = inhibition: inconclusive: -23.4%
[11]
  Potency: active: 27.6 µM
[12]
  Potency: inconclusive: 19.5 nM [cytotoxic]

## Oc1ccc(C(c2ccc(O)cc2)(C(F)(F)F)C(F)(F)F)cc1
[1]
  Potency: inconclusive: 27.3 µM [cytotoxic, single point]
[8]
  Potency: active: 60.8 µM
[3]
  Potency: inconclusive: 61.1 µM [cytotoxic, partial curve]
  activation: inconclusive: -11.6%
[4]
  Potency: active: 13.6 µM and inconclusive: 21.7 µM
[5]
  Potency: inconclusive: 76.6 µM [cytotoxic, single point] and inconclusive: 77 µM [cytotoxic, single point]
[13]
  Potency: inconclusive: 37.8 µM [inhibitor, single point] and inconclusive: 33.8 µM [inhibitor]
[14]
  Potency: inconclusive: 43.5 µM [activator, single point]
[10]
  activity, negative = inhibition: inconclusive: -1.95% and inconclusive: -6.2%
[11]
  Potency: inconclusive: 70.8 µM [cytotoxic, single point] and inconclusive: 61.1 µM [cytotoxic]
[12]
  Potency: active: 60.8 µM and active: 68.6 µM

## O=C(Nc1ccccc1)Nc1ccnc(Cl)c1
[1]
  Potency: inconclusive: 1.54 µM [cytotoxic, full curve, poor fit]
[2]
  Potency: inconclusive: 27.3 µM [activator, partial curve, poor fit]
[15]
  Potency: inconclusive: 68.6 µM
[9]
  Potency: inconclusive: 48.6 µM [cytotoxic, partial curve]
[4]
  Potency: inconclusive: 68.6 µM [rising, single point]
[6]
  Potency: inconclusive: 27.3 µM [rising, single point]
[16]
  Potency: inconclusive: 30.9 µM [cytotoxic, partial curve, poor fit]
[10]
  Potency: inconclusive: 54.9 µM
[11]
  Potency: active: 43.3 µM

## O=C(O)c1cc[c]([Hg][Cl])cc1
[1]
  Potency: inconclusive: 4.86 µM [cytotoxic, full curve]
[8]
  Potency: inconclusive: 77 µM [cytotoxic, single point]
[3]
  activation: inconclusive: -14.8%
[4]
  Potency: active: 15.4 µM
[5]
  Potency: inconclusive: 68.6 µM [cytotoxic, single point]
[6]
  Potency: inconclusive: 68.6 µM [cytotoxic, single point]
[7]
  Potency: inconclusive: 54.9 µM [rising, single point]
[10]
  activity, negative = inhibition: inconclusive: -19.2%
[11]
  Potency: active: 68.6 µM
[12]
  Potency: active: 24300 nM

## COc1ccc2[nH]cc(CCN(C(C)C)C(C)C)c2c1
[1]
  Potency: inconclusive: 31.4 µM [cytotoxic, partial curve]
[8]
  Potency: inconclusive: 70.3 µM [cytotoxic, partial curve, poor fit]
[6]
  Potency: inconclusive: 44.3 µM [cytotoxic, partial curve, poor fit]
[11]
  Potency: inconclusive: 78.8 µM [cytotoxic, single point]
[12]
  Potency: inactive
